Results from patent publication US8722849B2, “Polypeptides” (Novo Nordisk A/S, priority 2011, dated 2014).
The name of at least one read-out is uncertain. Starred links: 1 amine or outer side, 2 acyl side, 3 side chain; linkers in the order of their positions; H or OH if unused. Positions of bridges follow the written chain, without caps; N, C: chain ends. Residues, ends and D or L forms follow the SMILES beside them. Groups on a side chain read outwards from the residue. *: point of attachment. C20 diacid = O=C(O)CCCCCCCCCCCCCCCCCCC(=O)*; C18 diacid = O=C(O)CCCCCCCCCCCCCCCCC(=O)*; γGlu = O=C(O)[C@H](CCC(=O)[*:2])N[*:1]; AEEA = NCCOCCOCC(=O)O

Assay: Assay (III) ThT fibrillation assay for physical stability
Format: physicochemical
Conditions: ThT fibrillation assay
Method in brief: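 Freshly prepared formulations, pH-adjusted, with 1 μM ThT; four or eight replicates incubated at 37 °C under 960 rpm orbital shaking. Fluorescence (ex 444/em 485 nm) read every 20 min; […]. Peptide concentration measured by RP-HPLC before and after the run.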
In the case of `CC[C@H](C)[C@H](NC(=O)[C@@H]1CCCN1C(=O)CNC(=O)[C@H](Cc1ccccc1)NC(=O)[C@H](CCC(N)=O)NC(=O)[C@H](CCC(N)=O)NC(=O)[C@H](CO)NC(=O)[C@H](CO)NC(=O)[C@H](Cc1c[nH]cn1)NC(=O)[C@H](CCCNC(=N)N)NC(=O)[C@H](CC(C)C)NC(=O)[C@H](Cc1ccccc1)NC(=O)[C@H](CCC(=O)O)NC(=O)[C@H](C)NC(=O)[C@H](CC(C)C)NC(=O)[C@H](CCCNC(=N)N)NC(=O)[C@H](CCC(N)=O)NC(=O)[C@@H](NC(=O)[C@H](C)NC(=O)[C@@H]1CSSC[C@H](NC(=O)[C@H](CCC(=O)O)NC(=O)[C@H](CCCNC(=N)N)NC(=O)[C@H](CCC(=O)O)NC(=O)CC[C@H](NC(=O)CCCCCCCCCCCCCCCCCCC(=O)O)C(=O)O)C(=O)N[C@@H](CC(N)=O)C(=O)N[C@@H]([C@@H](C)O)C(=O)N[C@@H](C)C(=O)N[C@@H]([C@@H](C)O)C(=O)N1)[C@@H](C)O)C(=O)N[C@@H](CC(C)C)C(=O)N1CCC[C@H]1C(=O)N1CCC[C@H]1C(=O)N[C@H](C(=O)N[C@@H](CCC(N)=O)C(=O)N[C@H](C(=O)NCC(=O)N[C@@H](CO)C(=O)N[C@@H](CCC(N)=O)C(=O)N[C@H](C(=O)N1CCC[C@H]1C(N)=O)[C@@H](C)O)C(C)C)[C@@H](C)O` [Example 164, N-alpha-[(S)-4-Carboxy-4-(19-carboxynonadecanoylamino)butyryl]-Glu-Arg-[Glu1,Glu14,Arg17,Gln21,Gln22,Gln31,Gln35,Pro37]-pramlintide] ({C20 diacid-γGlu}-ERECNTATCATQRLAEFLRHSSQQFGPILPPTQVGSQTP-NH2; disulfide 4-9 (inferred)), the “ThT pH 4.0 recovery” value is reported as 95% and the “ThT pH 4.0 recovery (%)” value is reported as 95%.
For “{C20 diacid-γGlu}-SSGSSGCNTATCATQRLAEFLHHSSNNFGPILPPTNVGSNTY-NH2 (disulfide 7-12 (inferred)) [Example 39, N-alpha-[(S)-4-Carboxy-4-(19-carboxynonadecanoylamino)butyryl]-Ser-Ser-Gly-Ser-Ser-[Gly1,Glu14,His17]-pramlintide]”, the “ThT pH 4.0 recovery (%)” value was 0%.
With `CC[C@H](C)[C@H](NC(=O)[C@H](CCCCNC(=O)COCCOCCNC(=O)COCCOCCNC(=O)CC[C@H](NC(=O)CCCCCCCCCCCCCCCCC(=O)O)C(=O)O)NC(=O)CNC(=O)[C@H](Cc1ccccc1)NC(=O)[C@H](CC(N)=O)NC(=O)[C@H](CC(N)=O)NC(=O)[C@H](CO)NC(=O)[C@H](CO)NC(=O)[C@H](Cc1c[nH]cn1)NC(=O)[C@H](Cc1c[nH]cn1)NC(=O)[C@H](CC(C)C)NC(=O)[C@H](Cc1ccccc1)NC(=O)[C@H](CCC(=O)O)NC(=O)[C@H](C)NC(=O)[C@H](CC(C)C)NC(=O)[C@H](CCCNC(=N)N)NC(=O)[C@H](CCC(N)=O)NC(=O)[C@@H](NC(=O)[C@H](C)NC(=O)[C@@H]1CSSC[C@H](NC(=O)[C@@H](N)CCCCN)C(=O)N[C@@H](CC(N)=O)C(=O)N[C@@H]([C@@H](C)O)C(=O)N[C@@H](C)C(=O)N[C@@H]([C@@H](C)O)C(=O)N1)[C@@H](C)O)C(=O)N[C@@H](CC(C)C)C(=O)N1CCC[C@H]1C(=O)N1CCC[C@H]1C(=O)N[C@H](C(=O)N[C@@H](CC(N)=O)C(=O)N[C@H](C(=O)NCC(=O)N[C@@H](CO)C(=O)N[C@@H](CC(N)=O)C(=O)N[C@H](C(=O)N[C@@H](Cc1ccc(O)cc1)C(N)=O)[C@@H](C)O)C(C)C)[C@@H](C)O` [Example 73, N-epsilon25-[2-(2-{2-[2-(2-{2-[(S)-4-Carboxy-4-(17-carboxyheptadecanoylamino)butyrylamino]ethoxy}ethoxy)acetylamino]ethoxy}ethoxy)acetyl]-[Glu14,His17,Lys25]-pramlintide] (H-KCNTATCATQRLAEFLHHSSNNFGK([AEEA-AEEA-γGlu-C18 diacid])ILPPTNVGSNTY-NH2; disulfide 2-7 (inferred); N-terminus and C-terminus assumed) the “ThT pH 4.0 recovery” value was 100% and the “ThT pH 4.0 recovery (%)” value was 100%.
For `CC[C@H](C)[C@H](NC(=O)[C@@H]1CCCN1C(=O)CNC(=O)[C@H](Cc1ccccc1)NC(=O)[C@H](CC(N)=O)NC(=O)[C@H](CC(N)=O)NC(=O)[C@H](CO)NC(=O)[C@H](CO)NC(=O)[C@H](Cc1c[nH]cn1)NC(=O)[C@H](Cc1c[nH]cn1)NC(=O)[C@H](CC(C)C)NC(=O)[C@H](Cc1ccccc1)NC(=O)[C@H](CCC(=O)O)NC(=O)[C@H](C)NC(=O)[C@H](CC(C)C)NC(=O)[C@H](CCCNC(=N)N)NC(=O)[C@H](CCC(N)=O)NC(=O)[C@@H](NC(=O)[C@H](C)NC(=O)[C@@H]1CSSC[C@H](NC(=O)[C@H](CCC(=O)O)NC(=O)CC[C@H](NC(=O)CCCCCCCCCCCCCCCCCCC(=O)O)C(=O)O)C(=O)N[C@@H](CC(N)=O)C(=O)N[C@@H]([C@@H](C)O)C(=O)N[C@@H](C)C(=O)N[C@@H]([C@@H](C)O)C(=O)N1)[C@@H](C)O)C(=O)N[C@@H](CC(C)C)C(=O)N1CCC[C@H]1C(=O)N1CCC[C@H]1C(=O)N[C@H](C(=O)N[C@@H](CC(N)=O)C(=O)N[C@H](C(=O)NCC(=O)N[C@@H](CO)C(=O)N[C@@H](CC(N)=O)C(=O)N[C@H](C(=O)N[C@@H](Cc1ccc(O)cc1)C(N)=O)[C@@H](C)O)C(C)C)[C@@H](C)O` [Example 29, N-alpha-[(S)-4-Carboxy-4-(19-carboxynonadecanoylamino)butyryl]-[Glu1,Glu14,His17]-pramlintide] ({C20 diacid-γGlu}-ECNTATCATQRLAEFLHHSSNNFGPILPPTNVGSNTY-NH2; disulfide 2-7 (inferred)), the “ThT pH 4.0 recovery (%)” value was 0%.
With `CC[C@H](C)[C@H](NC(=O)[C@@H]1CCCN1C(=O)CNC(=O)[C@H](Cc1ccccc1)NC(=O)[C@H](CC(N)=O)NC(=O)[C@H](CCC(N)=O)NC(=O)[C@H](CO)NC(=O)[C@H](CO)NC(=O)[C@H](Cc1c[nH]cn1)NC(=O)[C@H](CCCNC(=N)N)NC(=O)[C@H](CC(C)C)NC(=O)[C@H](Cc1ccccc1)NC(=O)[C@H](CCC(=O)O)NC(=O)[C@H](C)NC(=O)[C@H](CC(C)C)NC(=O)[C@H](CCCNC(=N)N)NC(=O)[C@H](CCC(N)=O)NC(=O)[C@@H](NC(=O)[C@H](C)NC(=O)[C@@H]1CSSC[C@H](NC(=O)[C@H](CCC(=O)O)NC(=O)[C@H](CCCNC(=N)N)NC(=O)[C@H](CCC(=O)O)NC(=O)CC[C@H](NC(=O)CCCCCCCCCCCCCCCCCCC(=O)O)C(=O)O)C(=O)N[C@@H](CC(N)=O)C(=O)N[C@@H]([C@@H](C)O)C(=O)N[C@@H](C)C(=O)N[C@@H]([C@@H](C)O)C(=O)N1)[C@@H](C)O)C(=O)N[C@@H](CC(C)C)C(=O)N1CCC[C@H]1C(=O)N1CCC[C@H]1C(=O)N[C@H](C(=O)N[C@@H](CC(N)=O)C(=O)N[C@H](C(=O)NCC(=O)N[C@@H](CO)C(=O)N[C@@H](CC(N)=O)C(=O)N[C@H](C(=O)N1CCC[C@H]1C(N)=O)[C@@H](C)O)C(C)C)[C@@H](C)O` [Example 161, N-alpha-[(S)-4-Carboxy-4-(19-carboxynonadecanoylamino)butyryl]-Glu-Arg-[Glu1,Glu14,Arg17,Gln21,Pro37]-pramlintide] ({C20 diacid-γGlu}-ERECNTATCATQRLAEFLRHSSQNFGPILPPTNVGSNTP-NH2; disulfide 4-9 (inferred); C-terminus assumed) the “ThT pH 4.0 recovery” value was 96% and the “ThT pH 4.0 recovery (%)” value was 96%.
With `CC[C@H](C)[C@H](NC(=O)[C@@H]1CCCN1C(=O)CNC(=O)[C@H](Cc1ccccc1)NC(=O)[C@H](CC(N)=O)NC(=O)[C@H](CC(N)=O)NC(=O)[C@H](CO)NC(=O)[C@H](CO)NC(=O)[C@H](Cc1c[nH]cn1)NC(=O)[C@H](Cc1c[nH]cn1)NC(=O)[C@H](CC(C)C)NC(=O)[C@H](Cc1ccccc1)NC(=O)[C@H](CCC(=O)O)NC(=O)[C@H](C)NC(=O)[C@H](CC(C)C)NC(=O)[C@H](CCCNC(=N)N)NC(=O)[C@H](CCC(N)=O)NC(=O)[C@@H](NC(=O)[C@H](C)NC(=O)[C@@H]1CSSC[C@H](NC(=O)[C@H](Cc2c[nH]cn2)NC(=O)[C@H](Cc2c[nH]cn2)NC(=O)[C@H](Cc2c[nH]cn2)NC(=O)CC[C@H](NC(=O)CCCCCCCCCCCCCCCCC(=O)O)C(=O)O)C(=O)N[C@@H](CC(N)=O)C(=O)N[C@@H]([C@@H](C)O)C(=O)N[C@@H](C)C(=O)N[C@@H]([C@@H](C)O)C(=O)N1)[C@@H](C)O)C(=O)N[C@@H](CC(C)C)C(=O)N1CCC[C@H]1C(=O)N1CCC[C@H]1C(=O)N[C@H](C(=O)N[C@@H](CC(N)=O)C(=O)N[C@H](C(=O)NCC(=O)N[C@@H](CO)C(=O)N[C@@H](CC(N)=O)C(=O)N[C@H](C(=O)N[C@@H](Cc1ccc(O)cc1)C(N)=O)[C@@H](C)O)C(C)C)[C@@H](C)O` [Example 45, N-alpha-[(S)-4-Carboxy-4-(17-carboxyheptadecanoylamino)butyryl]-His-His-[His1,Glu14,His17]-pramlintide] ({C18 diacid-γGlu}-HHHCNTATCATQRLAEFLHHSSNNFGPILPPTNVGSNTY-NH2; disulfide 4-9 (inferred); C-terminus assumed) the “ThT pH 4.0 recovery” value was 37% and the “ThT pH 4.0 recovery (%)” value was 37%.
For `CC[C@H](C)[C@H](NC(=O)[C@@H]1CCCN1C(=O)CNC(=O)[C@H](Cc1ccccc1)NC(=O)[C@H](CC(N)=O)NC(=O)[C@H](CCCCNC(=O)COCCOCCNC(=O)COCCOCCNC(=O)CC[C@H](NC(=O)CCCCCCCCCCCCCCCCC(=O)O)C(=O)O)NC(=O)[C@H](CO)NC(=O)[C@H](CO)NC(=O)[C@H](Cc1c[nH]cn1)NC(=O)[C@H](Cc1c[nH]cn1)NC(=O)[C@H](CC(C)C)NC(=O)[C@H](Cc1ccccc1)NC(=O)[C@H](CCC(=O)O)NC(=O)[C@H](C)NC(=O)[C@H](CC(C)C)NC(=O)[C@H](CCCNC(=N)N)NC(=O)[C@H](CCC(N)=O)NC(=O)[C@@H](NC(=O)[C@H](C)NC(=O)[C@@H]1CSSC[C@H](NC(=O)[C@@H](N)CCCCN)C(=O)N[C@@H](CC(N)=O)C(=O)N[C@@H]([C@@H](C)O)C(=O)N[C@@H](C)C(=O)N[C@@H]([C@@H](C)O)C(=O)N1)[C@@H](C)O)C(=O)N[C@@H](CC(C)C)C(=O)N1CCC[C@H]1C(=O)N1CCC[C@H]1C(=O)N[C@H](C(=O)N[C@@H](CC(N)=O)C(=O)N[C@H](C(=O)NCC(=O)N[C@@H](CO)C(=O)N[C@@H](CCC(=O)O)C(=O)N[C@H](C(=O)N[C@@H](Cc1ccc(O)cc1)C(N)=O)[C@@H](C)O)C(C)C)[C@@H](C)O` [Example 74, N-epsilon21-[2-(2-{2-[2-(2-{2-[(S)-4-Carboxy-4-(17-carboxyheptadecanoylamino)butyrylamino]ethoxy}ethoxy)acetylamino]ethoxy}ethoxy)acetyl]-[Glu14,His17,Lys21,Glu35]-pramlintide] (H-KCNTATCATQRLAEFLHHSSK([AEEA-AEEA-γGlu-C18 diacid])NFGPILPPTNVGSETY-NH2; disulfide 2-7 (inferred)), the “ThT pH 4.0 recovery” value was 96% and the “ThT pH 4.0 recovery (%)” value was 96%.
